Laboratory results taken from the RNAGym collection of RNA variant scans (doi:10.1093/nar/gkz1192).
Read counts are not given, so values of variants with three or more changes are uncertain.

B1: CPEB3 Ribozyme (parent)
chain: UAACAGGGGGCCACAGCAGAAGCGUUCACGUCGCAGCCCCUGUCAGAUUCUGGUGAAUCUGCGAAUUCUGCUGUAUAUCUC

Variants of: B1
Assay: self-cleavage, relative activity (ratio to wild type); higher = more cleavage; in vitro, sequencing
Summary of the method: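 Barcoded CPEB3 ribozyme mutants, produced by rounds of error-prone PCR, self-cleaved while being transcribed with T7 RNA polymerase for 5 hours at 37°C and during a subsequent 15 min DNase I step before EDTA was added. Sequencing of template-switched cDNA on Illumina gave cleaved and total reads, and DNA sequencing assigned barcodes to variants. Each variant's relative activity is its cleaved/total read fraction divided by the unmutated ribozyme's fraction, averaged across three batches. A variant needed a minimum of 5 reads.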

Variant | self-cleavage
U31C U60C U78C U80A | 0.2
U31C A47U A56G U69A | 0.1
U31C A47U U58A U72G | 0.49
U31C U74C A75G | 1.13
U31C U60C A64U | 0.43
U31C U49C U67C | 0.22
U31C U43C U69A U78C | 0.39
U31C U58C U74A | 0.56
U31C U48C G52A U78C | 0.59
U31C U54A A65G U76A U78C | 0.23
U31C U48C U51C U60C | 0.17
U31C G33A A57G A64G | 0.08
C32A U41C A65G G73C | 0.27
U31C C40U U49C | 0.17
U31C U48C U54C A56U | 0.1
U31G U60G A65G | 0.09
U31G A57G G73A | 1.14
U31C U58A U72C | 0.23
U31C U60C C68A | 0.2
U31C U51A U72C | 1.06
U31G U51C U58C | 0.14
U31C U58C A75G | 0.2
U31C A57G C79U | 0.96
U31C C32G U41A U67A U76C | 0.18

Variant | self-cleavage
U31C C44U A45G U54C U58C | 0.06
U31C U66G U72C | 0.25
U31C C37U U43C U66C | 0.27
U31C G33A U69C | 0.14
U31C A47G U48C U51C U60A U72C | 0.1
U31G A56G A57G U60C | 0.12
U31G A47G U78C | 0.48
U31G A47G U78G | 0.7
U31C U41C U67A | 0.32
U31C U41C C62G | 0.18
U31C G33U A56U U78C | 0.26
U31C G36U U51C | 0.07
U31C U48C A56C U69A | 0.11
U31G G42A U54C A57G G70U U72C | 0.08
U31C U54A U69A | 0.26
C32A C38A U51C A56U | 0.22
U31C U51A A57G A64G U80C | 0.12
U31C U43A G46A A47G U60A U67C | 0.09
U31G U67C U78C U80C | 0.12
U31C U54C U69C A75G | 0.34
U31C U54C C68G | 0.32
U31C A65U C68G | 0.1
U31C U51A G63C | 0.19
C32A G46U U66C | 0.15

Variant | self-cleavage
U31C U54C U78C | 0.89
U31C C34A U48C A56G U67A | 0.09
U31C U80A C81U | 0.96
U31C C40A U48A U60A | 0.12
U31G A35G U41A A57G A77G | 0.41
U31C U41C U72C | 0.72
U31C U67C A75U | 0.15
U31C A65U U72C U78C | 0.22
U31C G42C U54A U67C | 0.1
U31G A56U U74C | 0.61
U31C U41C U51A C59U | 0.65
U31C U41A A45U G61A | 0.11
U31C C32A C62U A65G U74C | 0.05
C32A A45U U49C | 0.2
U31C U43G A45G U67C A75G | 0.05
U31C A57G A65G | 0.17
U31C A57U A75G | 0.37
C32A G61C U78C | 0.13
U31C U43C C44A U66C A75G | 0.29
U31C U69C U80A | 0.35
U31C U69C U80C | 0.29
C32A C37A U54G U58A C71G | 0.06
U31G C40U U80C | 0.25
U31C U41C U69C U72C | 0.17

Variant | self-cleavage
U31C U41C U69C U72A | 0.12
U31C U51A U69C U76A | 0.29
U31C U54C U66C U72C A77G U78C | 0.09
U31C C40A G73A | 0.38
U31C U48A U54A U72C U76C | 0.31
U31G C38U A45U A56G A57U G63U A77U | 0.05
U31C C40U A57G U78C | 0.19
U31C C37A U54C | 0.33
U31C U49A U78A | 0.48
U31C U49A U78C | 0.5
U31G U43A U54A | 0.74
U31C G53U A64G | 0.69
U31G G63A A64C | 0.56
U31G G42C U69C | 0.19
U31C C38U U48C U49C A56G A75G | 0.11
C32A A56G G70A U74C | 0.16
U31C C32A C71G U78A | 0.06
U31C U43A U54A | 0.76
U31G U43A U60A G61A | 0.17
U31C C37U U67C C68A | 0.1
U31C A47U A65C | 0.15
C32A U41A U66C | 0.21
U31C U48C U54C U67A | 0.12
U31C A47U A57G U58A U60A A65G | 0.06

Variant | self-cleavage
U31C U51G U66A | 0.34
C32A A35G A64U U67C | 0.4
U31C C39U A57C | 0.24
U31G U66C G73A | 0.23
U31C G33A C40A A64U G73U | 0.17
U31C A64U C81U | 0.19
U31C A57G U74A | 1.09
U31C G33A U41C U69C U76G | 0.05
U31C A56G A64G U80C | 0.18
U31C C39U U48C U66A | 0.08
U31C U60C U66C | 0.36
U31C U48C U67C | 0.18
U31C U67C A77G | 0.33
U31C U41C U51C A56U G63A U69A | 0.17
U31G U51A U72C | 0.6
U31C U60C U69C U72C | 0.43
U31C U54C A77U U78C | 1.01
U31C U41C U43G C59U | 0.1
U31C U41A U43C U76C | 0.12
U31C U48G U72C C79U | 0.23
U31C U48C A57G | 1.03
U31C U51C A56G | 0.71
U31G A56G A64U | 0.25
U31C A47G U72A U78A U80C | 0.65

Variant | self-cleavage
U31C U48C U54G | 0.48
U31C G33U U41A U74C U76A | 0.14
U31C U43A U51G | 0.9
C32A A35U A56G U69C A77G | 0.05
U31C U43C U67C | 0.22
U31C A56G U60A | 0.32
U31C C38G U41A U69C | 0.08
U31C U72C C79A | 1.23
U31G A45U A75G | 0.37
U31C U43C A56G | 0.16
U31C A47G U58C A65G | 0.24
U31C C32U U41C U51C U69A | 0.37
U31G U41C G63C U66C | 0.22
C32A A64U A65G | 0.12
U31G C40G A57G A64U | 0.11
C32A A64G U66C | 0.19
U31C G46A U69C U72A U78C | 0.04
U31C U49C A57U | 0.18
U31C G36A U67C U76C | 0.11
U31C A56G U58C U78A | 0.21
U31C U51C U72G | 0.26
U31C U49A U60C | 0.16
U31C C34U A45G A57G U67A | 0.09
U31C U54A A64G | 0.39

Variant | self-cleavage
U31C U41C A57G U60C U67C | 0.17
U31C U41A U43C U49A U67C G73C U80A | 0.06
U31C U41C A56G U72C | 0.24
U31C U41A A64U | 0.07
U31C G61A U78C U80C | 0.3
U31C U49A U67C U80A | 0.28
U31C U72A C81U | 0.42
C32A U41A U69A | 0.08
U31G G53U U72C U78G | 0.85
U31G U48C U69C | 0.23
U31C U41C U60C | 0.2
U31G A45U U48C A56G U66C U69C U80A | 0.08
U31C U41C U67G U74C | 0.38
U31G C44U U72C | 0.07
U31G C39U U60C | 0.13
U31C U66C U78C U80C | 0.11
U31C G33A U43C A45G A65G | 0.18
U31C U49C A64G | 0.29
U31C U48C U69C | 0.19
U31C U60A U80A | 0.36
U31G C32G U54C U66C C68A C79A | 0.17
U31C G52A A56G U78C | 0.82
U31C U54C A56G | 0.57
